Laboratory results published in the RNAGym collection of RNA variant scans (doi:10.1093/nar/gkz1192).
Read counts are not given, so values of variants with three or more changes are uncertain.

B1: CPEB3 Ribozyme (parent)
chain: UAACAGGGGGCCACAGCAGAAGCGUUCACGUCGCAGCCCCUGUCAGAUUCUGGUGAAUCUGCGAAUUCUGCUGUAUAUCUC

Variants of: B1
Test: self-cleavage, relative activity (ratio to wild type); higher = more cleavage; in vitro, sequencing
Outline: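 Libraries of CPEB3 self-cleaving ribozyme mutants came from rounds of error-prone PCR and carried barcodes, which DNA sequencing matched to variants. In vitro transcription used T7 RNA polymerase at 37°C for 5 hours, with a further 15 min in DNase I before EDTA stopped the reaction; the ribozymes cleaved during both steps. The RNA was reverse transcribed with template switching and sequenced on Illumina. Relative activity is the cleaved/total read fraction of a variant divided by that of the unmutated ribozyme, averaged over three batches with at least 5 reads.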

Variant | self-cleavage
UAACAGGGGACCACAGCAGAAGCGUUCACGUCGCAGCCCCUGUCAGGUUCUGGUGAAUCUGCGAAUUCUGCAGUAUAUCUC [G10A A47G U72A] | 0.39
UAACAGGGGACCACAGCAGAAGCGUUCACGUCGCAGCCCCUGUCAGAUUCUGGUGGGUCUGCGAAUUCUGCUGUAUAUCUC [G10A A56G A57G] | 0.13
UAACAGGGGACCACAGCAGAAGCGUUCACGUCGCAGCCCCUGUCAGAUUCUGGUGUAUCUGCGAAUCCUGCAGUAUAUCUC [G10A A56U U67C U72A] | 0.06
UAACAGGGGACCACAGCAGAAGCGUUCACGUCGCAGCCCCUGUCAGAUUCUGGUGUAUCUGCGAAUUCGGCUGUAUAUCUC [G10A A56U U69G] | 0.04
UAACAGGGGACCACAGCAGAAGCGUUCACGUCGCAGCCCCUGUCAGAUUCUGGUGAAUCUGCGGAUUCUGCUGAAUAUCUC [G10A A64G U74A] | 0.19
UAACAGGGGACCACAGCAGAAGCGUUCACGUCGCAGCCCCUGUCAGAUUCUGGUGAAUCUGCGGAUUCUGCUGCAUAUCUC [G10A A64G U74C] | 0.12
UAACAGGGGACCACAGCAGAAGCGUUCACGUCGCAGCCCCUGUCAGAUUCUGGUGAAUCUGCGUAUUCUGCUGUAAAUCUC [G10A A64U U76A] | 0.08
UAACAGGGGAACACAGCAGAAGCGUUCACGUCGAAGCUCCUGUCAGAGUCUGGUGAAUCUGCGAACUCUGCUGUAUAUCUC [G10A C11A C34A C38U U48G U66C] | 0.02
UAACAGGGGAACACAGCAGAAGCGCUCACGUCGCAGCCUCAGUCAGAUUCUGGUGAAUCUGCGAAUUCAGCUGUAUAUCUC [G10A C11A U25C C39U U41A U69A] | 0.04
UAACAGGGGAACACAGCAGAAGCGUUCACGUCGCAGCCCCUGUCAGAUUCUGGUGAAUCUGCGAAUUCUGCUGAAUAUCCC [G10A C11A U74A U80C] | 0.1
UAACAGGGGAGCACAGCAGAAGCGUUCACGUCGAAGCCCCUGUCUGAUUCCGGUGAAUCUGCGAAUUCUGCUGUAUAUCUC [G10A C11G C34A A45U U51C] | 0.06
UAACAGGGGAGCACAGCAGAAGCGAUCACGUCGCAGCCCCUGGCAGAUUCUGGUGAAUCCGCGAAUUCUGCUGUAUAUCUC [G10A C11G U25A U43G U60C] | 0.13
UAACAGGGGAGCACAGCAGAAGCGUUCACGUCGCAGCCCCUGUCAGAUACUAGUGAAUCUGCGAAUUCUGCUGUAUAUCUC [G10A C11G U49A G52A] | 0.07
UAACAGGGGAUCACAGCAGAAGUGUUCACGUCGCAGCCCCUGACAGAUUCUGGUGAAUCUGCGGAUUCUGCUGUAUACCUC [G10A C11U C23U U43A A64G U78C] | 0.13
UAACAGGGGAUCACAGCAGAAGCGUUCACGUCGCAGCCCCCGUCAGAUUCUGGUGAAUCUGCGAAUUCUGCUGUAUAUCUC [G10A C11U U41C] | 0.37
UAACAGGGGACGACAGCCGAAGCGCUCACGUCGCAGCCCCUGCCAGAUUCUGGUGAAUCUGCGAAUUGUGCUGUAUAUCUC [G10A C12G A18C U25C U43C C68G] | 0.08
UAACAGGGGACGACAGCAGAAGCAUUCACGUCGCAGCCCCUGUCAGAUUCUGAUGAAUCUGCGAAUUCUGCUGUAUAUCUC [G10A C12G G24A G53A] | 0.26

Variant | self-cleavage
UAACAGGGGACUACAGCAGGAGCGUUCACGUCGCAGCCCCUAACAGAUUCUGGUGAAUCUGCGAAUUCUGCUGUAUAUCUC [G10A C12U A20G G42A U43A] | 0.05
UAACAGGGGACCAGAGCAGAAGCGUUCACGUCGCAGCCACUGUCGGAUUCUGGUGAAUCUGCGAAUUCUGCUGUAUAUCUC [G10A C14G C39A A45G] | 0.05
UAACAGGGGACCAGAGCAGAAGCGUUCACGUCGCAGCCCCUGUCAGAUUCUGGUGAAUCUGCGAAUUCUUCUGUAUAUCUC [G10A C14G G70U] | 0.24
UAACAGGGGACCAUAGCAGGAGCGUUCACGUCGCAGCCCCUGUCAGAUUCUGGUGAAUCUGCGAAUUCUGCUGUAUAUCUC [G10A C14U A20G] | 0.21
UAACAGGGGACCAUAGCAGAAGCGUUCACGUCGCAGCCCAUGUCAGAUUCUGGUGAAUCUGCGAACUCUGCCGUAUAUCUC [G10A C14U C40A U66C U72C] | 0.08
UAACAGGGGACCAUAGCAGAAGCGUUCACGCCGCAGCCCCUGUCAGAUCCUGGGGAAUCUGCGAAUUCCGCUGUAUAUCCC [G10A C14U U31C U49C U54G U69C U80C] | 0.18
UAACAGGGGACCAUAGCAGAAGCGUUCACGUCGCAGCCCCUGUCAGAUUCUGGUGAACCUGCGAAUUCAGCUGUAUAUCUC [G10A C14U U58C U69A] | 0.04
UAACAGGGGACCACAGAAGAAGCGUUCACGUCGCAGCCCCCGUCAGAUUCUGGCGAAUCUGCGAGUUCUGCUGUAUAUCAC [G10A C17A U41C U54C A65G U80A] | 0.14
UAACAGGGGACCACAGGGGAAGCGUUCACGUCGCAGCCCCUGUCAGAUUCUGGUGACUCUGCGAAUUCUGCCGUAUAUCUC [G10A C17G A18G A57C U72C] | 0.04
UAACAGGGGACCACAGGAGAAGCGUUCACGCCGCAGCCCCUGACAGAUUCUGGUGUAUCGGCGAAUUCUGCUGUAUAUCUC [G10A C17G U31C U43A A56U U60G] | 0.04
UAACAGGGGACCACAGUAGAAGCGUUCACGUCGCAGCCCCUGUCAGAUUCUGGUGAAUCUGCGAAUUCUGCUAUAUUUCUC [G10A C17U G73A A77U] | 0.35
UAACAGGGGACCACAGCAGAAGUGUACACGUCGCAGCCCCUGCCAGAUUCCGGUGAAUCUGCGUAUUCUGCUGUAUAUCUC [G10A C23U U26A U43C U51C A64U] | 0.04
UAACAGGGGACCACAGCAGAAGCGUUAACGUCGCAGCCCCUGUCAGAUUCUGGUGAAUCCGCGAAUUCUGCUGUAUAUUUC [G10A C27A U60C C79U] | 0
UAACAGGGGACCACAGCAGAAGCGUUUACGUCGCAGCCCCUGUCAGAUUCUGGUGAAUCUGCGAAUUCCGCUGUAUAUCUC [G10A C27U U69C] | 0.15
UAACAGGGGACCACAGCAGAAGCGUUCAAGUCGCAGCCCCUGUCAGAUACUAGUGAAUCUGCGAAUUCUGCUGUAUAUCCC [G10A C29A U49A G52A U80C] | 0.21
UAACAGGGGACCACAGCAGAAGCGUUCAUGUCGCCGCCCCCGUCAGAUUCCGGUGAAUCUGCGAAUUCUGCUGUAUAUCUC [G10A C29U A35C U41C U51C] | 0.22
UAACAGGGGACCACAGCAGAAGCGUUCAUGUCGCAGCCCCUGUCAGGUUCUGGUGAAUCUGCGAAUUCUGCUGUAUAUCUC [G10A C29U A47G] | 0.16
